Reference: paper PMC4336329 (PLoS ONE, 2015)
Among all 310,000 compounds or so, about 2,200 (0.71%) showed an effect of 50% or more. Effects have a minus sign here. This is one part of the list.

Each compound was assayed against human ether-à-go-go-related gene (hERG) potassium channel (human, UniProt Q12809) (assay: primary screen, population patch clamp on CHO cells stably expressing hERG).
Chain of human ether-à-go-go-related gene (hERG) potassium channel (Q12809 whole entry, looked up): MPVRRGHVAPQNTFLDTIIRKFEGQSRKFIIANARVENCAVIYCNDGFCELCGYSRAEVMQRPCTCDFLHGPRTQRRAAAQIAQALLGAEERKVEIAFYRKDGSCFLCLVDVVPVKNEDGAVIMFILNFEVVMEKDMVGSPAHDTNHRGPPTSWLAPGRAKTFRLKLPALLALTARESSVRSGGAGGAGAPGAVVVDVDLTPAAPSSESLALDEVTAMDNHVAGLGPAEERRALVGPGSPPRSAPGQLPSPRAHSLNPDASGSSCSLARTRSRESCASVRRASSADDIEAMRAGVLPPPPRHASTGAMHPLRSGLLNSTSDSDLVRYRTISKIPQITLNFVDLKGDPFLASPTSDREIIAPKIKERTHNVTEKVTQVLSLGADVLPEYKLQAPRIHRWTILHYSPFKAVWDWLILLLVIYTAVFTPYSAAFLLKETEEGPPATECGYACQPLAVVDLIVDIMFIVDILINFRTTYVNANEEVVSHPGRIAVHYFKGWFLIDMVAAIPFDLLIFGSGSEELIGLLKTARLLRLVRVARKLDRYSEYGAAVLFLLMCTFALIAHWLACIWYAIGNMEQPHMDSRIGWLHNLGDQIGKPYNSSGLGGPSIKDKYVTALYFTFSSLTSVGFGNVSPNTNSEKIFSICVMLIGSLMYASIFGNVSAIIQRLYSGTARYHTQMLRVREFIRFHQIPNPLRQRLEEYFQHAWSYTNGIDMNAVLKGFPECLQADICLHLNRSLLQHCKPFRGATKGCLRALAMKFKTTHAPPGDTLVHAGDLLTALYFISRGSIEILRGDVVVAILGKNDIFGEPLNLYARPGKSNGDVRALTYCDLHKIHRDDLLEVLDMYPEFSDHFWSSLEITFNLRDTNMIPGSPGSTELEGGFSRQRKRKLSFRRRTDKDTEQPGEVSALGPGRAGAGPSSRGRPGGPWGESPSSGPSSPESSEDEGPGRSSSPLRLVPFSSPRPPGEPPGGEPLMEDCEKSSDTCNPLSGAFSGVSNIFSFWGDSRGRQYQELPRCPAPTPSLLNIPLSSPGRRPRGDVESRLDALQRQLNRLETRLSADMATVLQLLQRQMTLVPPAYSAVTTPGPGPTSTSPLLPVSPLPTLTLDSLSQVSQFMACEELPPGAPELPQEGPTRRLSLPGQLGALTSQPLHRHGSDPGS

Row | Structure (SMILES) | hERG current change (%, negative = inhibition) at 1uM [%]
1 | O=C(CCCN1C(=O)/C(=C\c2ccccc2)SC1=S)Nc1ccc(O)cc1C(=O)O | 16
2 | Cc1ccc2nc(NC(=O)COC(=O)c3ccc(Br)o3)sc2c1 | 2.88
3 | O=C(N/N=C/C(Cl)=C/c1ccccc1)c1ccccc1F | 11.8
4 | CC(=O)N1CCC(=NNc2ccc(S(=O)(=O)N3CCOCC3)cc2[N+](=O)[O-])CC1 | 0.897
5 | CCN(CC(=O)Nc1ccc2c(c1)OCO2)CC(=O)Nc1ccccc1C(F)(F)F | 3.75
6 | CCCCCN1CSC(=S)N(Cc2ccccc2)C1 | 9.22
7 | Cc1cc(NC(=S)NC(=O)C2CC2)ccc1Br | 7.39
8 | Cc1ncc(CN2CCCC(C(=O)Nc3ccc(-c4ccco4)cc3)C2)n1C (stereo not drawn) | -5.82
9 | O=C(Cc1ccc([N+](=O)[O-])cc1)NNC(=O)c1cccs1 | 7.22
10 | COc1ccccc1N(CC(=O)Nc1ccc2c(c1)OCCO2)S(C)(=O)=O | 8.09
11 | c1csc(-c2nc(N3CCOCC3)c3ccccc3n2)c1 | 5.11
12 | CCCOc1ccc(Oc2nc(-c3ccncc3)nc3ccccc23)cc1 | 6.24
13 | CC1CCN(S(=O)(=O)c2cc3c4c(c2)CCN4C(=O)CC3)CC1 | -15.7
14 | C#CCn1ccc(O)c(Cc2c(F)cccc2Cl)c1=O | 8.94
15 | CCOc1cccc(-c2c(C(=O)N/N=C/c3c(F)cccc3Cl)nnn2-c2nonc2N)c1 | 13.6
16 | O=P(Nc1cccc(F)c1)(Oc1ccccc1F)Oc1ccccc1F | 11.2
17 | COc1ccc(N2CC(C(=O)NCc3ccccc3)CC2=O)cc1 (stereo not drawn) | 10.7
18 | Cc1c(NC(=O)CSc2ncn[nH]2)c(=O)n(-c2ccccc2)n1C | 19.7
19 | C=CCN(c1ccccc1)S(=O)(=O)c1cc2c(cc1C)NC(=O)CO2 | 0.659
20 | CS(=O)(=O)N(CC(=O)Nc1ccc(F)c(F)c1)c1cccc([N+](=O)[O-])c1 | -3.37
21 | COc1ccc(Cl)cc1NC(=O)CSc1nc(N2CCCCC2)nc(N2CCCCC2)n1 | 8.36
22 | Cn1c(SCC(=O)OC2CCCCC2)nnc1-c1ccco1 | 9
23 | C/C=C/COC(=O)C1=C(C)NC(=O)NC1c1ccc2c(c1)OCO2 (stereo not drawn) | 14.4
24 | O=C(N/N=C/c1ccc(F)cc1)c1cc(-c2ccco2)nc2ccccc12 | 8.34
